# Source: PubChem BioAssay AID1768 (National Center for Advancing Translational Sciences (NCATS), 2009)
# Values joined by “and” are separate entries in the source; they are usually repeats but may differ in a detail not shown here. Equal values may be shown once. The campaign covered roughly 270,000 compounds. About 620 (0.23%) were called active. The shares of active, inactive and inconclusive entries below differ from those in the screen. Calls follow the shape of the dose curve; as a rule, active = well fitted inhibition curve with a large enough effect in the polarisation, with a control signal flat (not every such curve was filed as active); inconclusive = small, poorly fitted or top-dose-only effect, or effect the other way, or a change in a side signal; inactive = no such curve, though single readings can be large or run the other way; the % refers to the polarisation. Potencies of inconclusive entries are doubtful fits and often do not repeat. “Side channel” marks fits to a control or component signal instead of the main read-out.
# Molecular target: Menin (Homo sapiens) (UniProt O00255)
# Experiment: qHTS Assay for Inhibitors Targeting the Menin-MLL Interaction in MLL Related Leukemias: Competition With Texas Red Labeled MLL-derived Mutant Peptide; as to FP activity change, negative = inhibition: % of control where 0% means no effect
# Settings: fluorescence polarization; FP activity change, negative = inhibition: at 61.6 µM (top of the series)
# Potency is read from the fitted curve at half-maximal effect; tags tell the direction and shape of the fitted curve or compound fluorescence and quenching.
# UniProt O00255, sequence (O00255 whole entry, looked up): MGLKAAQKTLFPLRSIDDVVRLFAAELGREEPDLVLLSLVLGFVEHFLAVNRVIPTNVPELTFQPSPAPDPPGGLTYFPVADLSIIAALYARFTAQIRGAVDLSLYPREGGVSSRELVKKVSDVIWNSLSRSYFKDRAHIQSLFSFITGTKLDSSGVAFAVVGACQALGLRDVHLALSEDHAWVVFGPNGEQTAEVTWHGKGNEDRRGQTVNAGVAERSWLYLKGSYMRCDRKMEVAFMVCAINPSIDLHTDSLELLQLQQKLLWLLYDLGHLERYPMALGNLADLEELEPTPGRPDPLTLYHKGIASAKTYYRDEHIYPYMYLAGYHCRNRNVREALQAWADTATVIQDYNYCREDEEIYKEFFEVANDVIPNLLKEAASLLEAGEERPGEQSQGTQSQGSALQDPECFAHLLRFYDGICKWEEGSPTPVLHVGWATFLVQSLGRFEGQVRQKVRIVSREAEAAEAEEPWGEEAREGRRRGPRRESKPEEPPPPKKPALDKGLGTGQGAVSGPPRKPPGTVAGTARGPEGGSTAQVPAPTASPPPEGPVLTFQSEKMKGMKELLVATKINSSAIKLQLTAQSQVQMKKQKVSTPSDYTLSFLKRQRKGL
SMILES,"FP activity change, negative = inhibition",Potency
O=C(N/N=C/c1ccccc1C(=O)O)c1ccncc1,inactive: 10.9%,
CC(NCc1cccc(OCc2ccccc2)c1)C(O)c1ccccc1 (configuration not stated),,"inconclusive: 22.4 µM [inhibitor, partial curve]"
O=C(NCCc1c[nH]c2ccccc12)c1ccccc1,,"inconclusive: 11.2 µM [inhibitor, partial curve, poor fit]"
Cc1[nH]n(-c2ccccc2)c(=O)c1C(C[N+](=O)[O-])c1ccc(Br)cc1 (configuration not stated),,"inconclusive: 14.1 µM [quencher, side channel, partial curve]"
COc1cccc([C@@H]2Oc3ccc(Br)cc3C[C@H]2O)c1,inactive: 15.8%,
NC(=O)c1ccsc1NC(=O)COC(=O)CSc1ccc(Cl)cc1,,"inconclusive: 25.1 µM [quencher, side channel, partial curve]"
CC(NC(=O)CN(C)S(=O)(=O)c1ccc(Br)s1)c1ccccc1 (configuration not stated),,"inconclusive: 39.8 µM [fluorescent, side channel, single point]"
Cc1cccc(C(=O)Oc2ccc(/C=N/NC(=O)c3ccccc3O)cc2)c1,,"inconclusive: 10 µM [quencher, side channel, partial curve]"
O=c1[nH]c(/C=C2\C=Nc3ccccc32)c(O)n1Cc1ccccc1F,,"inconclusive: 8.91 µM [quencher, side channel, partial curve]"
CC(=O)CSc1nnc2c3ccccc3nc(C(C)(C)C)n12,,"inconclusive: 7.94 µM [fluorescent, side channel, full curve, poor fit]"
N#CCc1ccc(C(=O)c2ccccc2F)s1,,"inconclusive: 5.62 µM [quencher, side channel, partial curve]"
O=C1NC(=S)S/C1=C/c1ccc(N2CCOCC2)o1,,"inconclusive: 39.8 µM [fluorescent, side channel, single point]"
COc1ccc(NC(=O)Cn2nnc(-c3ccccc3NC(=O)c3cccs3)n2)cc1,,"inconclusive: 3.55 µM [quencher, side channel, full curve]"
COc1cc(C)c(C)cc1S(=O)(=O)N1CCN(Cc2ccc3c(c2)OCO3)CC1,,"inconclusive: 3.55 µM [inhibitor, partial curve, poor fit]"
O=C(Nc1cccc(F)c1)N1CC2(CCN(C(=O)c3cc(C(F)(F)F)cc(C(F)(F)F)c3)CC2)C1,inactive: -4.92%,
CCS(=O)(=O)C1=NSC2=NC(=O)/C(=C\c3ccc(OS(=O)(=O)c4ccccc4)cc3)C(=N)N21,,"inconclusive: 12.6 µM [quencher, side channel, partial curve]"
COc1cccc(/C=C2/CN(C)CC3=C2OC(N)=C(C#N)C3c2cccc(OC)c2)c1 (configuration not stated),,"inconclusive: 25.1 µM [fluorescent, side channel, partial curve]"
COc1ccccc1NC(=O)c1sc(Cl)nc1C,,"inconclusive: 8.91 µM [inhibitor, full curve, poor fit]"
CCCCCCn1c(N2CCC(C)CC2)nc2c1c(=O)[nH]c(=O)n2C,,"inconclusive: 2.82 µM [fluorescent, side channel, full curve, poor fit]"

SMILES,"FP activity change, negative = inhibition",Potency
CSc1ccccc1C(=O)Nc1cc2c(cc1C(=O)O)OCCCO2,,"inconclusive: 14.1 µM [quencher, side channel, partial curve]"
CCCCN(C)C(=O)C1CCN(Cc2ccc(OCc3ccccc3)cc2)CC1,inactive: -21.9%,
Cc1nc2cc(-c3ccc(Br)cc3)[nH]n2c(=O)c1Cl,,"inconclusive: 17.8 µM [quencher, side channel, partial curve]"
CCN(CC)c1ccc(NC(=O)CN(C)Cc2cccs2)cc1,,"inconclusive: 25.1 µM [inhibitor, partial curve]"
COc1cccc2c(SCC(=O)N/N=C/c3ccc(O)c(O)c3)cc(C)nc12,,"inconclusive: 39.8 µM [quencher, side channel, single point]"
Cc1nc2sccn2c(=O)c1S(=O)(=O)Nc1ccc(N2CCN(S(C)(=O)=O)CC2)cc1,,"inconclusive: 39.8 µM [quencher, side channel, single point]"
Cc1ccc(/C=[N+](\[O-])c2ccc(N(C)C)cc2)c2nsnc12,,"inconclusive: 35.5 µM [fluorescent, side channel, single point]"
COC1[C@@H](OC)C[C@H](C)[C@@H](OC)C2=CC(=O)C=C(NC(=O)/C(C)=C/C=C\[C@H](OC)[C@@H](OC(N)=O)/C(C)=C/[C@@H]1C)C2=O (some centres not stated),inactive: -11.2%,
Cc1c(C(=O)Oc2ccc(-c3cnc4ccccc4n3)cc2)cccc1[N+](=O)[O-],,"inconclusive: 8.91 µM [quencher, side channel, partial curve]"
CCOC(=O)C1(CCOc2ccccc2)CCN(Cc2ccc(O)c(OCC)c2)CC1,,"inconclusive: 15.8 µM [fluorescent, side channel, partial curve]"
CCOC(=O)C1(CCCc2ccccc2)CCN(C2CCSCC2)CC1,,"inconclusive: 22.4 µM [fluorescent, side channel, partial curve]"
O=C(/C=C/c1ccco1)NC(=S)Nc1ccccc1N1CCOCC1,,"inconclusive: 39.8 µM [quencher, side channel, single point]"
CCC(=O)N1N=C(c2cccs2)CC1c1ccc(C)cc1 (configuration not stated),,"inconclusive: 7.94 µM [inhibitor, full curve]"
CC(=O)N1CCc2cc(S(=O)(=O)NC3CCCCC3)ccc21,,"inconclusive: 7.08 µM [quencher, side channel, single point]"
CCC(C)C(N)C(=O)O (configuration not stated),inactive: 7.99%,
Cc1ccc(/C(O)=C/C(=O)C(=O)NNC(=O)C(O)(c2ccccc2)c2ccccc2)cc1,,"inconclusive: 12.6 µM [inhibitor, partial curve, poor fit]"
Cn1cccc1/C=C(\C#N)c1ccccc1,,"inconclusive: 7.08 µM [quencher, side channel, single point]"
O=C(Nc1ccc([N+](=O)[O-])cc1)Nc1ccc([N+](=O)[O-])cc1,,"inconclusive: 3.55 µM [quencher, side channel, full curve, poor fit]"
CCCN1CCC(=O)N([C@H](CO)c2ccccc2)CC1,inactive: 3.74%,

SMILES,"FP activity change, negative = inhibition",Potency
CN(C)CCCn1c(SCC(=O)N2c3ccccc3Sc3ccccc32)nc2ccccc2c1=O,,"inconclusive: 7.94 µM [inhibitor, full curve, poor fit]"
CCCCCCCCCCCC1=C(O)C(=O)C=C(O)C1=O,,"inconclusive: 14.1 µM [quencher, side channel, partial curve] and inconclusive: 31.6 µM [quencher, side channel, partial curve, poor fit] and inconclusive: 7.08 µM [quencher, side channel, full curve]"
O=C(NC(=S)N1CCN(c2c(Cl)cccc2[N+](=O)[O-])CC1)c1cccs1,,"inconclusive: 44.7 µM [inhibitor, partial curve]"
c1ccc(-n2cnnc2SCc2nc3ccccc3s2)cc1,,"inconclusive: 25.1 µM [quencher, side channel, single point]"
CNc1nc(-c2ccc3c(c2)CCN3C(=O)CC(C)(C)C)c(C)s1,,"inconclusive: 39.8 µM [fluorescent, side channel, single point]"
COCCN1CN(S(=O)(=O)c2ccccc2)c2nc3ccccc3nc21,inactive: -13.7%,
NC(=O)NC1NC(=O)NC1=O (configuration not stated),inactive: 4.66%,
O=c1[nH]c(=O)c2nnc(N/N=C\c3ccc(O)cc3)nc2[nH]1,,"inconclusive: 10 µM [quencher, side channel, partial curve]"
Cc1cccc(NC(=S)Nc2ccc(Br)cc2)c1,,"inconclusive: 25.1 µM [quencher, side channel, single point]"
COc1ccc2oc(=O)c(-c3csc(Nc4cccc(O)c4)n3)cc2c1,,"inconclusive: 15.8 µM [quencher, side channel, partial curve]"
CCOC(=O)Cc1csc(N/N=C\c2cccc(Br)c2)n1,,"inconclusive: 15.8 µM [quencher, side channel, partial curve]"
CC1CCCCN1C(=O)Cn1c(=O)oc2cc(S(=O)(=O)N3CCCC3)ccc21 (configuration not stated),,"inconclusive: 12.6 µM [inhibitor, partial curve]"
Cc1ccc(-c2[nH]nc(N)c2N=Nc2ccccc2C)cc1,,"inconclusive: 17.8 µM [quencher, side channel, partial curve]"
O=C(CSc1nc2ccc(NC(=O)c3ccccc3C(=O)O)cc2s1)Nc1ccc(F)c([N+](=O)[O-])c1,,"inconclusive: 25.1 µM [quencher, side channel, partial curve]"
CSCCNCc1cn(-c2ccc(F)cc2F)nc1-c1ccccc1C,,"inconclusive: 39.8 µM [fluorescent, side channel, single point]"
CCCCn1c(=O)nc2n(-c3ccccc3C)c3ccccc3cc-2c1=O,inactive: -3.36%,
CCCSc1nc2c(c(=O)n(C)c(=O)n2C)n1C,,"inconclusive: 8.91 µM [inhibitor, partial curve, poor fit]"
Cc1cnc(NC(=O)C(C)N2CCN(C)CC2)s1 (configuration not stated),,"inconclusive: 25.1 µM [inhibitor, single point]"
O=C1CCc2ccc(OCCCCN3CCN(c4cccc(Cl)c4Cl)CC3)cc2N1,,"inconclusive: 14.1 µM [fluorescent, side channel, partial curve, poor fit]"
